# Reference: the supplement of paper PMC7826260
# The list shows a part of the results. Each Rep nickase domain was tested in vitro on the same pool of single strands for 1 h at 37 °C with 3 µM enzyme; only the middle of the 90-letter strands is printed. Uncut reads are compared with the no-enzyme pool on a log2 scale; more negative means more cut, near 0 not cut, and no call is made. The scaling is to total reads; uncut strands gain when others are lost, and binding without cutting may add a little.
# Assays:
# Assay in all cases: uncleaved DNA left, log2 of reads against the no-enzyme library (log2 ratio); higher = less cleavage (more negative = more Rep cleavage of the k-mer); sequences stand for … in CTCGTCCG…ACCGGAGA
# [1] = tested on: T1, Rep nickase domain of Muscovy duck circovirus
# T1 sequence (residues 1-111 of Rep, tag left off): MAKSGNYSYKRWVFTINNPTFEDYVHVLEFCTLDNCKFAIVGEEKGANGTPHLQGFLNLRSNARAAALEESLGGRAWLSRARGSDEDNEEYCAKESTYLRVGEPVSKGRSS
# Protocol: (§1)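 A pool of 90-nt single-stranded DNAs with seven random bases just before the constant AC of the nick site (name = the seven bases) was cut by 3 µM recombinant His6-SUMO-tagged Rep nickase domain (300 nM DNA, 50 mM HEPES pH 8.0, 50 mM NaCl, 1 mM MnCl2, 1 h, 37 °C, three replicates). Uncut DNA was amplified and sequenced.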
# [2] = tested on: T2, Rep nickase domain of banana bunchy top virus
# T2 sequence (residues 1-94 of Rep, tag left off): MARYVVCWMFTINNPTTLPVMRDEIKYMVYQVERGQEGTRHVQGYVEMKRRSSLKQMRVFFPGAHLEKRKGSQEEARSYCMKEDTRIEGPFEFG
# Protocol: as §1
# [3] = tested on: T3, Rep nickase domain of cabbage leaf curl virus
# T3 sequence (residues 1-116 of Rep, tag left off): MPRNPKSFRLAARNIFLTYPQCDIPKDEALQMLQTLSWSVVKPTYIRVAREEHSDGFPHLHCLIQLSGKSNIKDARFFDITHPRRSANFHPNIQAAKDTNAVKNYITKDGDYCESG
# Protocol: as §1
# [4] = tested on: T4, Rep nickase domain of chickpea chlorotic dwarf virus
# T4 sequence (residues 1-124 of Rep, tag left off): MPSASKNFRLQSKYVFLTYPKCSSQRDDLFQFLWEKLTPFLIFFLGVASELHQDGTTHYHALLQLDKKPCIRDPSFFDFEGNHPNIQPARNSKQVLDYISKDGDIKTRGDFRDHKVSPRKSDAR
# Protocol: as §1
# [5] = tested on: T5, Rep nickase domain of faba bean necrotic yellows virus
# T5 sequence (residues 1-98 of Rep, tag left off): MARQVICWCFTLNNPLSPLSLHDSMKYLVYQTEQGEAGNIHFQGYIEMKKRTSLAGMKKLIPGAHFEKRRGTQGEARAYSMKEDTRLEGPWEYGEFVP
# Protocol: as §1
# [6] = tested on: T6, Rep nickase domain of maize striate mosaic virus
# T6 sequence (residues 1-117 of Rep, tag left off): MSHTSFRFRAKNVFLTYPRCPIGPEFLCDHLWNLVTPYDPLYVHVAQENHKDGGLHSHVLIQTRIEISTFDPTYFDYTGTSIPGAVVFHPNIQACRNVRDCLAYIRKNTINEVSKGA
# Protocol: as §1
# [7] = tested on: T7, Rep nickase domain of porcine circovirus 2
# T7 sequence (residues 2-116 of Rep, tag left off): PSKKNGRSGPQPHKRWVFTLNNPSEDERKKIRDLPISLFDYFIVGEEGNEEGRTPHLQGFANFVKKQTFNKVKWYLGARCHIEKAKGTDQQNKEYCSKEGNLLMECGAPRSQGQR
# Protocol: as §1
# [8] = tested on: T8, Rep nickase domain of tomato golden mosaic virus
# T8 sequence (residues 1-124 of Rep, tag left off): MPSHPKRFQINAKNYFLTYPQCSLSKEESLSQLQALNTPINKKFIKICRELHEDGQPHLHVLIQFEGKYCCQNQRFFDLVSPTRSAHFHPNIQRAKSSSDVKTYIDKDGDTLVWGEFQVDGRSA
# Protocol: as §1
# [9] = tested on: T9, Rep nickase domain of tomato yellow leaf curl virus
# T9 sequence (residues 1-136 of Rep, tag left off): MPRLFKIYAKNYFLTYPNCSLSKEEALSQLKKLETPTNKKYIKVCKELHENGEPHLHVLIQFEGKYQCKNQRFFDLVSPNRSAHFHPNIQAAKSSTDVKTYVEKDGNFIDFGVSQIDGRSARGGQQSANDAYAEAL
# Protocol: as §1
# [10] = tested on: T10, Rep nickase domain of wheat dwarf virus
# T10 sequence (residues 1-137 of Rep, tag left off): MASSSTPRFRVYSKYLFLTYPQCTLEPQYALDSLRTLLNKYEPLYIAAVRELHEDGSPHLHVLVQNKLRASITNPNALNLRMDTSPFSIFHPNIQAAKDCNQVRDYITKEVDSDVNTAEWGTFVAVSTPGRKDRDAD
# Protocol: as §1
Sequence,uncleaved DNA left (log2) [1],uncleaved DNA left (log2) [2],uncleaved DNA left (log2) [3],uncleaved DNA left (log2) [4],uncleaved DNA left (log2) [5],uncleaved DNA left (log2) [6],uncleaved DNA left (log2) [7],uncleaved DNA left (log2) [8],uncleaved DNA left (log2) [9],uncleaved DNA left (log2) [10]
TCCGATA,-0.00354,-0.0112,0.0245,-0.416,0.0327,-0.0395,-0.208,-0.0377,-0.0443,-0.0718
GTTTTAG,-0.0152,0.0169,0.0146,0.193,0.00142,-0.27,0.201,0.0513,0.0605,0.0354
TGAGACG,-0.0398,0.0639,-0.427,-0.417,0.104,-0.614,0.0667,0.0523,-0.019,-0.0239
GGTGGCG,-0.0204,-0.104,-0.541,0.55,0.0405,0.0719,0.112,0.0711,-0.158,-0.15
GGTACAT,-0.0163,0.0755,0.914,2.14,0.0159,2.33,0.248,0.0544,0.0681,0.238
GAGTTCG,0.0606,0.0239,-0.783,-0.201,0.0074,-0.63,-0.0662,-0.0914,0.0389,-0.0638
GAAAGAC,0.0234,0.0183,0.437,1.2,-0.17,1.32,0.189,-0.0425,-0.0379,0.0775
CAGTCAG,0.0469,0.0346,-0.793,-0.41,-0.0301,-1.07,-0.197,-0.0394,0.0928,-0.152
AGGCCCC,-0.081,0.0081,0.777,1.51,0.0553,1.98,-0.0148,0.0968,0.00991,0.162
TTCCGAA,0.114,0.123,0.737,0.726,0.115,1.41,0.106,0.0284,0.163,0.163
AGGAAAT,-0.0391,-0.0898,0.375,1.6,-0.0359,1.7,0.056,-0.0154,-0.00109,0.0629
CCAAAGC,0.0325,0.032,-0.171,-0.248,0.112,-1.02,0.163,0.0552,0.118,0.0966
TATCTAG,-0.0099,-0.0413,-0.779,-0.81,0.0691,-1.16,0.117,-0.0884,-0.0244,-0.127
AGTGGAG,0.101,0.073,-0.376,-0.198,0.125,-0.63,0.322,0.118,0.0673,0.109
GATGAGC,-0.0561,-0.135,-0.233,0.248,-0.0412,-0.562,0.0422,-0.245,-0.122,-0.0327
ATTTTAA,0.0705,0.0584,-0.068,-0.393,0.147,-0.562,0.066,0.0624,0.0929,0.0583
TGCGTCA,0.0108,-0.126,-0.44,-0.515,-0.0477,-0.599,-0.15,-0.0847,-0.00444,-0.233
GCAGGAG,0.0408,0.0377,-0.252,0.00898,-0.144,-0.661,0.145,0.0146,0.0723,0.0436
AACTAAT,-3.17,-3.34,-1.05,-2.51,-0.233,-0.732,-3.9,-0.354,-0.254,-0.153
TGGGAAC,0.00848,0.101,0.801,1.91,0.00299,2.17,0.132,0.00921,0.0491,0.152

Sequence,uncleaved DNA left (log2) [1],uncleaved DNA left (log2) [2],uncleaved DNA left (log2) [3],uncleaved DNA left (log2) [4],uncleaved DNA left (log2) [5],uncleaved DNA left (log2) [6],uncleaved DNA left (log2) [7],uncleaved DNA left (log2) [8],uncleaved DNA left (log2) [9],uncleaved DNA left (log2) [10]
GTAAAAT,-0.00988,0.0382,0.268,0.811,0.0919,1.79,0.172,0.184,0.0995,0.133
GGAACGG,0.105,0.163,0.717,1.76,0.0683,2.15,0.157,0.129,0.103,0.231
TAGGTCG,0.0397,0.109,-0.709,-0.606,0.0585,-0.946,0.111,0.0584,0.165,0.0485
AGTATGC,0.0527,0.0644,-0.302,-0.297,0.0609,-0.926,0.226,0.0476,0.0893,0.0408
TTTTGGA,0.0286,0.0114,-0.00804,-0.361,-0.0551,-0.683,0.00394,0.0388,-0.0356,-0.0971
TGCAACA,0.00906,-0.0427,0.255,-0.525,0.0243,0.835,-0.141,-0.000203,-0.0275,0.035
GCGAAAG,-0.0827,0.0205,-0.19,0.413,0.00337,-0.0528,0.139,0.0558,0.088,0.00498
AAGTACG,0.0252,0.158,-0.59,-0.531,0.0593,-1,0.166,0.0359,0.0324,-0.0781
ACCGTTA,-0.188,-0.0126,-0.258,-1.17,-0.0114,-0.944,-0.0854,-0.0959,-0.0482,-0.0365
TAGCCCC,-0.118,-0.0803,-0.0468,-0.197,-0.0797,0.033,-0.654,-0.299,-0.00708,0.024
GCCTGGT,-0.191,-0.0492,0.182,0.518,-0.0704,0.273,-0.762,0.068,0.00324,-0.135
CCAAGAG,-0.0494,-0.144,-0.51,-0.32,-0.0962,-1.06,0.105,-0.111,0.0157,-0.115
GTCAAAA,0.176,0.0948,0.331,0.959,-0.0029,1.72,0.0913,0.184,0.0271,0.164
TCGCTTT,-0.191,-0.335,-0.246,-2.05,-0.187,-0.684,-1.12,-0.417,-0.107,-0.418
TATCAGA,0.0522,0.0971,0.0145,-0.352,0.076,-0.862,0.219,0.0507,0.0372,0.108
AAACGCG,-0.0906,-0.0154,-0.576,0.813,-0.0397,-0.194,0.11,-0.0678,0.0386,-0.124
ACCCTCG,-0.142,-0.0794,-0.736,0.374,-0.0102,-0.596,-0.0114,-0.00601,-0.109,0.0526
TCCCCTA,-0.329,-0.248,-0.0203,-0.907,-0.251,-0.53,-0.509,-0.143,-0.216,-0.282
CAAGGGT,0.114,0.0429,0.259,1.53,0.0567,1.88,0.198,0.0482,-0.125,0.117
ATTACTA,-0.0403,-0.0807,-0.269,-2.52,-0.037,-0.673,-0.188,0.0826,0.0496,-0.0413

Sequence,uncleaved DNA left (log2) [1],uncleaved DNA left (log2) [2],uncleaved DNA left (log2) [3],uncleaved DNA left (log2) [4],uncleaved DNA left (log2) [5],uncleaved DNA left (log2) [6],uncleaved DNA left (log2) [7],uncleaved DNA left (log2) [8],uncleaved DNA left (log2) [9],uncleaved DNA left (log2) [10]
GCGAAGC,0.0865,0.0708,0.168,0.82,0.0437,0.376,0.108,0.0718,2.06e-05,0.0366
TGCACTG,-0.116,-0.0774,-0.0564,0.516,-0.107,1.64,0.0347,-0.0379,-0.0981,-0.0294
GCCTTAG,-0.0423,-0.0289,-0.47,-0.426,-0.0329,-0.959,-0.0186,-0.11,0.0121,-0.0594
CTGAGAA,0.102,0.014,0.0579,0.13,0.0787,-0.361,0.0986,0.0341,-0.00543,0.0422
TGCAAAT,-0.0391,0.0837,0.0591,-0.114,-0.0152,-0.366,-0.136,-0.0151,0.042,0.0532
CATAATA,-0.158,-0.142,-0.293,-2.77,-0.0608,-0.75,-0.266,-0.00227,-0.191,-0.0382
GCGGAGC,-0.231,-0.104,0.199,0.718,-0.0858,0.782,0.0156,-0.0208,-0.1,-0.0438
AACTGGT,-0.561,-0.212,0.00634,0.508,-0.0228,1.17,-3.5,-0.0466,0.0572,0.0465
TAGTATG,-0.159,-0.265,-0.486,-0.688,-0.111,-0.868,-1.77,-0.111,-0.0555,-0.205
CGCGTGA,-0.119,-0.279,-0.258,-0.293,-0.212,-0.345,-0.0497,-0.196,-0.254,-0.199
TCGCCAG,0.0193,0.105,-0.00039,0.00226,0.121,-0.442,0.174,-0.0571,0.104,-0.0242
CAAGCTG,-0.0404,0.0641,0.347,1.46,0.0195,1.68,0.101,0.0123,-0.0995,0.0224
TTCCCCT,-0.0188,-0.0179,0.102,-1.83,-0.000119,-0.329,-0.477,-0.145,-0.0538,-0.0859
ATTAGAC,0.0317,0.0585,0.164,0.404,0.075,-0.441,0.168,0.0364,-0.0233,0.101
TCGTTCG,-0.0233,-0.204,-0.864,-0.643,-0.168,-1.18,0.0147,-0.261,-0.12,-0.145
GGCAATG,0.147,0.107,0.244,0.951,0.0911,1.57,0.163,0.136,0.056,0.0911
AAACGGA,0.0348,-0.0107,0.0612,0.418,0.00603,0.108,0.0216,0.0816,-0.0787,0.0212
TTCACTT,-0.159,-0.104,-0.0981,-2.19,-0.131,-0.135,-0.528,0.0188,0.06,-0.129
AAAATGT,0.0149,-0.0351,-0.975,-2.14,0.00487,-1.03,-0.344,-0.042,-0.0791,-0.323
ATCAGGT,0.0429,-0.0566,0.245,1.2,0.131,1.3,0.164,0.104,-0.13,0.0458
